# Laboratory results as given in the supplement of paper PMC8728848.
# The list shows a part of the results.
# Key:
# Experiment in all cases: glycan array binding signal (z-score within array); higher = stronger binding
# Details in all cases: glycan notation: IUPAC condensed, linker removed
# [1] = target: Neu5Ac(a2-3)Gal(b1-4)GlcNAc(b1-2)Man(a1-3)[Neu5Ac(a2-3)Gal(b1-4)GlcNAc(b1-2)Man(a1-6)]Man(b1-4)GlcNAc(b1-4)[Fuc(a1-6)]GlcNAc
# How it was run: (§1)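 From the Consortium for Functional Glycomics database, 3228 arrays were curated, keeping only those whose protein sequence was available. Binding is given as a within-array Z-score averaged across arrays sharing a protein sequence and across linkers. Negative Z-scores can be read as non-binding.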
# [2] = target: Neu5Ac(a2-3)Gal(b1-4)GlcNAc(b1-2)Man(a1-3)[Neu5Ac(a2-6)Gal(b1-4)GlcNAc(b1-2)Man(a1-6)]Man(b1-4)GlcNAc(b1-4)GlcNAc
# How it was run: as §1
# [3] = target: Neu5Ac(a2-3)Gal(b1-4)GlcNAc(b1-2)[Neu5Ac(a2-3)Gal(b1-4)GlcNAc(b1-4)]Man(a1-3)[GlcNAc(b1-4)][Neu5Ac(a2-3)Gal(b1-4)GlcNAc(b1-2)[Neu5Ac(a2-3)Gal(b1-4)GlcNAc(b1-6)]Man(a1-6)]Man(b1-4)GlcNAc(b1-4)GlcNAc
# How it was run: as §1
# [4] = target: Neu5Ac(a2-3)Gal(b1-4)GlcNAc(b1-2)[Neu5Ac(a2-3)Gal(b1-4)GlcNAc(b1-4)]Man(a1-3)[GlcNAc(b1-4)][Neu5Ac(a2-3)Gal(b1-4)GlcNAc(b1-4)Man(a1-6)]Man(b1-4)GlcNAc(b1-4)GlcNAc
# How it was run: as §1
# [5] = target: Neu5Ac(a2-3)Gal(b1-4)GlcNAc(b1-2)[Neu5Ac(a2-3)Gal(b1-4)GlcNAc(b1-6)]Man(a1-6)[Neu5Ac(a2-3)Gal(b1-4)GlcNAc(b1-2)Man(a1-3)]Man(b1-4)GlcNAc(b1-4)GlcNAc
# How it was run: as §1
# [6] = target: Neu5Ac(a2-3)Gal(b1-4)GlcNAc(b1-2)[Neu5Ac(a2-3)Gal(b1-4)GlcNAc(b1-6)]Man(a1-6)[Neu5Ac(a2-3)Gal(b1-4)GlcNAc(b1-2)Man(a1-3)][GlcNAc(b1-4)]Man(b1-4)GlcNAc(b1-4)GlcNAc
# How it was run: as §1
# [7] = target: Neu5Ac(a2-3)Gal(b1-4)GlcNAc(b1-3)Gal
# How it was run: as §1
# [8] = target: Neu5Ac(a2-3)Gal(b1-4)GlcNAc(b1-3)Gal(b1-3)GlcNAc
# How it was run: as §1
# [9] = target: Neu5Ac(a2-3)Gal(b1-4)GlcNAc(b1-3)Gal(b1-4)GlcNAc
# How it was run: as §1
# [10] = target: Neu5Ac(a2-3)Gal(b1-4)GlcNAc(b1-3)Gal(b1-4)GlcNAc(b1-2)Man(a1-3)[Neu5Ac(a2-3)Gal(b1-4)GlcNAc(b1-3)Gal(b1-4)GlcNAc(b1-2)Man(a1-6)]Man(b1-4)GlcNAc(b1-4)GlcNAc
# How it was run: as §1
# [11] = target: Neu5Ac(a2-3)Gal(b1-4)GlcNAc(b1-3)Gal(b1-4)GlcNAc(b1-3)Gal(b1-4)GlcNAc
# How it was run: as §1
# [12] = target: Neu5Ac(a2-3)Gal(b1-4)GlcNAc(b1-3)Gal(b1-4)GlcNAc(b1-3)Gal(b1-4)GlcNAc(b1-2)Man(a1-3)[Neu5Ac(a2-3)Gal(b1-4)GlcNAc(b1-3)Gal(b1-4)GlcNAc(b1-3)Gal(b1-4)GlcNAc(b1-2)Man(a1-6)]GalNAc
# How it was run: as §1
# [13] = target: Neu5Ac(a2-3)Gal(b1-4)GlcNAc(b1-3)Gal(b1-4)GlcNAc(b1-3)GalNAc
# How it was run: as §1
# [14] = target: Neu5Ac(a2-3)Gal(b1-4)GlcNAc(b1-3)Gal(b1-4)GlcNAc(b1-3)[Neu5Ac(a2-3)Gal(b1-4)GlcNAc(b1-3)Gal(b1-4)GlcNAc(b1-6)]GalNAc
# How it was run: as §1
# [15] = target: Neu5Ac(a2-3)Gal(b1-4)GlcNAc(b1-3)Gal(b1-4)GlcNAc(b1-6)[Gal(b1-3)]GalNAc
# How it was run: as §1
# [16] = target: Neu5Ac(a2-3)Gal(b1-4)GlcNAc(b1-3)Gal(b1-4)[Fuc(a1-3)]GlcNAc
# How it was run: as §1
# [17] = target: Neu5Ac(a2-3)Gal(b1-4)GlcNAc(b1-3)GalNAc
# How it was run: as §1
# [18] = target: Neu5Ac(a2-3)Gal(b1-4)GlcNAc(b1-3)[Neu5Ac(a2-3)Gal(b1-4)GlcNAc(b1-6)]GalNAc
# How it was run: as §1
# [19] = target: Neu5Ac(a2-3)Gal(b1-4)GlcNAc(b1-6)GalNAc
# How it was run: as §1
# [20] = target: Neu5Ac(a2-3)Gal(b1-4)GlcNAc(b1-6)[Gal(b1-3)]GalNAc
# How it was run: as §1
# [21] = target: Neu5Ac(a2-3)Gal(b1-4)GlcNAc(b1-6)[Neu5Ac(a2-3)Gal(b1-3)]GalNAc
# How it was run: as §1
# [22] = target: Neu5Ac(a2-3)Gal(b1-4)GlcNAc6S
# How it was run: as §1
# [23] = target: Neu5Ac(a2-3)Gal(b1-4)[Fuc(a1-3)]GlcNAc
# How it was run: as §1
# [24] = target: Neu5Ac(a2-3)Gal(b1-4)[Fuc(a1-3)]GlcNAc(b1-2)Man
# How it was run: as §1
# [25] = target: Neu5Ac(a2-3)Gal(b1-4)[Fuc(a1-3)]GlcNAc(b1-3)Gal
# How it was run: as §1
# [26] = target: Neu5Ac(a2-3)Gal(b1-4)[Fuc(a1-3)]GlcNAc(b1-3)Gal(b1-4)GlcNAc
# How it was run: as §1
# [27] = target: Neu5Ac(a2-3)Gal(b1-4)[Fuc(a1-3)]GlcNAc(b1-3)Gal(b1-4)[Fuc(a1-3)]GlcNAc(b1-3)Gal(b1-4)[Fuc(a1-3)]GlcNAc
# How it was run: as §1
# [28] = target: Neu5Ac(a2-3)Gal(b1-4)[Fuc(a1-3)]GlcNAc(b1-3)GalNAc
# How it was run: as §1
# [29] = target: Neu5Ac(a2-3)Gal(b1-4)[Fuc(a1-3)]GlcNAc(b1-6)[Gal(b1-3)]GalNAc
# How it was run: as §1
# [30] = target: Neu5Ac(a2-3)Gal(b1-4)[Fuc(a1-3)]GlcNAc(b1-6)[Neu5Ac(a2-3)Gal(b1-3)]GalNAc
# How it was run: as §1
# [31] = target: Neu5Ac(a2-3)Gal(b1-4)[Fuc(a1-3)]GlcNAc6S
# How it was run: as §1
# [32] = target: Neu5Ac(a2-3)Gal6S(b1-4)GlcNAc
# How it was run: as §1
# [33] = target: Neu5Ac(a2-3)Gal6S(b1-4)[Fuc(a1-3)]GlcNAc
# How it was run: as §1
# [34] = target: Neu5Ac(a2-3)GalNAc
# How it was run: as §1
# [35] = target: Neu5Ac(a2-3)GalNAc(b1-4)GlcNAc
# How it was run: as §1
# [36] = target: Neu5Ac(a2-3)[GalNAc(b1-4)]Gal(b1-4)Glc
# How it was run: as §1
# [37] = target: Neu5Ac(a2-3)[GalNAc(b1-4)]Gal(b1-4)GlcNAc
# How it was run: as §1
binder,measurement,setting,value
"Siglec-7-SA-PE-180 (Homo sapiens), Q9Y286 (protein) MLLLLLLPLLWGRERVEGQKSNRKDYSLTMQSSVTVQEGMCVHVRCSFSYPVDSQTDSDPVHGYWFRAGNDISWKAPVATNNPAWAVQEETRDRFHLLGDPQTKNCTLSIRDARMSDAGRYFFRMEKGNIKWNYKYDQLSVNVTALTHRPNILIPGTLESGCFQNLTCSVPWACEQGTPPMISWMGTSVSPLHPSTTRSSVLTLIPQPQHHGTSLTCQVTLPGAGVTTNRTIQLNVSYPPQNLTVTVFQGEGTASTALGNSSSLSVLEGQSLRLVCAVDSNPPARLSWTWRSLTLYPSQPSNPLVLELQVHLGDEGEFTCRAQNSLGSQHVSLNLSLQQEYTGKMRPVSGVLLGAVGGAGATALVFLSFCVIFIVVRSCRKKSARPAADVGDIGMKDANTIRGSASQGNLTESWADDNPRHHGLAAHSSGEEREIQYAPLSFHKGEPQDLSGQEATNNEYSEIKIPK",glycan array binding signal (z-score),[1],-0.092
same,glycan array binding signal (z-score),[2],-0.227
same,glycan array binding signal (z-score),[3],-0.246
same,glycan array binding signal (z-score),[4],-0.188
same,glycan array binding signal (z-score),[5],-0.042
same,glycan array binding signal (z-score),[6],-0.519
same,glycan array binding signal (z-score),[7],-0.132
same,glycan array binding signal (z-score),[8],-0.181
same,glycan array binding signal (z-score),[9],0.066
same,glycan array binding signal (z-score),[10],0.575
same,glycan array binding signal (z-score),[11],-0.255
same,glycan array binding signal (z-score),[12],0.612
same,glycan array binding signal (z-score),[13],0.095
same,glycan array binding signal (z-score),[14],-0.031
same,glycan array binding signal (z-score),[15],-0.64
same,glycan array binding signal (z-score),[16],-0.115
same,glycan array binding signal (z-score),[17],-0.316
same,glycan array binding signal (z-score),[18],-0.214
same,glycan array binding signal (z-score),[19],-0.257
same,glycan array binding signal (z-score),[20],-0.321
same,glycan array binding signal (z-score),[21],-0.035
same,glycan array binding signal (z-score),[22],4.5
same,glycan array binding signal (z-score),[23],-0.125
same,glycan array binding signal (z-score),[24],0.327
same,glycan array binding signal (z-score),[25],-0.107
same,glycan array binding signal (z-score),[26],-0.352
same,glycan array binding signal (z-score),[27],-0.309
same,glycan array binding signal (z-score),[28],0.319
same,glycan array binding signal (z-score),[29],0.087
same,glycan array binding signal (z-score),[30],0.018
same,glycan array binding signal (z-score),[31],1.48
same,glycan array binding signal (z-score),[32],2.67
same,glycan array binding signal (z-score),[33],0.193
same,glycan array binding signal (z-score),[34],0.352
same,glycan array binding signal (z-score),[35],0.776
same,glycan array binding signal (z-score),[36],-0.213
same,glycan array binding signal (z-score),[37],0.018
